From PubChem BioAssay AID995 (National Center for Advancing Translational Sciences (NCATS), 2007)
Values joined by “and” are separate entries in the source; they are usually repeats but may differ in a detail not shown here. Identical values can stand only once. Screen size: about 72,000 compounds; about 710 (0.99%) were called active. The shares of active, inactive and inconclusive entries below differ from those in the screen. Calls follow the shape of the dose curve; as a rule, active = well fitted inhibition curve with a large enough effect; inconclusive = small, poorly fitted or top-dose-only effect; inactive = no such curve, though single readings can be large or run the other way. Potencies of inconclusive entries are left out as doubtful fits.

Assay: qHTS Assay for Inhibitors of the ERK Signaling Pathway using a Homogeneous Screening Assay; also: nearly all actives have a fitted effect of over 55% in size
Conditions: HEK293-V1b, vasopressin-stimulated pERK AlphaScreen; activity, negative = inhibition: at 57.5 µM (top of the series) unless noted
Source text: qHTS Assay for Inhibitors of the ERK Signaling Pathway using a Homogeneous Screening Assay; also: nearly all actives have a fitted effect of over 55% in size
NIH Chemical Genomics Center [NCGC]
NIH Molecular Libraries Screening Centers Network [MLSCN]
Assay Submitter (PI): Dr. Wei Zheng, NCGC/NIH
The Ras/extracellular-signal-regulated kinase (ERK) mitogen activated protein (MAP) kinase signaling pathway (ERK1/2 cascade) plays is a key role in transmitting signals from the cell surface to the nucleus (Nishida and Gotoh 1993; Chang and Karin, 2001). The cascade is initiated by the small G-protein Ras, which recruits Raf […], where activation occurs. Alternatively, this pathway can be activated by elevating intracellular cAMP.
Activation of the ERK pathway is essential in increased cell division and cell survival. Sustained and constitutive activation of the ERK pathway, however, has been linked to uncontrolled cell proliferation, increased cell survival, and tumor progression. Thus, the ERK has been as an attractive target for cancer chemotherapy in the past few years (Sebolt-Leopold and Herrera, 2004). Given its physiological and pathological importance, assessment of ERK phosphorylation has been broadly performed in both basic research and drug discovery. Most assays for the measurement of ERK phosphorylation use the antibody-based detection methods, such as western blot and ELISA. These assays require multiple reagent additions with cell wash steps and are not suitable for high throughout screening.
The current cell-based ERK phosphorylation assay was performed using AlphaScreen platform. AlphaScreen is a two bead-based proximity-dependent chemical energy transfer luminescent assay platform. The assay reagents (ERK SureFire(TM) kit) were supplied from TGR BioSciences (Australia). In the presence of specific antibodies, phosphorylated ERK will bring "donor" and "acceptor" beads to a proximity range (<200 nm), and subsequently lead a chemical luminescent reaction upon exciting donor beads with 680 nm laser. To exclude the assay-related false positives, we used a biotinylated rabbit IgG to perform counter-screen. The biotinylated antibody mimics the phosphorylated ERK1/2 for bringing streptavidin coated beads and protein-A coated beads to a proximity range for the AlphaScreen detection.
NCGC Assay Protocol Summary:
HEK293 cells stably expressing type-1 vasopressin receptor (V1b) were maintained in DMEM medium (Invitrogen, Carlsbad, CA) at 37C under a humidified atmosphere containing 5% CO2 and 95% air. The medium contained 10% FBS, 2 mM L-glutamine, non-essential amino acid, pyruvate and 50 U/ml penicillin and 50 ug/ml streptomycin (Invitrogen). The aliquots of frozen cells were stored at -135C and used for the compound screening. All compounds were screened as titrations from 0.6 nM to 46 uM final concentration. Vasopressin was used to stimulate the ERK phosphorylation pathway. The ERK phosphorylation in cells was determined using an AlphaScreen assay kit provided by PerkinElmer. Data were normalized to the controls for basal activity (DMSO only) and 100% activation (25 nM vasopressin). AC50 values were determined from concentration-response data modeled with the standard Hill equation.
(1) Seed 4 ul/well of resuspended frozen HEK293 cells containing 2000 cells in white 1536-well plates for overnight with 1% FBS at 37C under a humidified atmosphere containing 5% CO2 and 95% air.
(2) Add 23 nL compounds in DMSO solution. The final titration was 0.6 nM to 46 uM.
(3) Incubate at 37C for 30 min.
(4) Dispense 0.5uL vasopressin (25 nM in final)
(5) Incubate at 37C for 5 min.
(6) Dispense 0.5uL of 1:2 diluted 5x lysis buffer.
(7) Incubate at 37C for 10 min.
(8) Dispense 1.5uL of mixture of activation buffer and reaction buffer with AlphaScreen beads (streptavidin donor beads and protein-A acceptor beads, 10 ng/well for each).
(9) Incubate at room temperature for 5 hr.
(10) Detect the assay plate in an EnVision plate reader (PerkinElmer) using the AlphaScreen detection mode.
[…]
% is scaled to controls: 0 for no effect and ±100 for the full control effect; potency is read from the fitted curve at half-maximal effect; tags tell the direction and shape of the fitted curve.

SMILES	Potency	activity, negative = inhibition
Cc1noc(C)c1-c1nc(NCc2cccs2)c2ccccc2n1	inconclusive [inhibitor, partial curve]	–
CC1CCc2sc3nc(N4CCN(CCO)CC4)n4ncnc4c3c2C1 (stereo not drawn)	inconclusive [inhibitor, partial curve]	–
C#CCCCO/N=C1/C[C@@H](O)[C@@H](O)[C@@H]2[C@@H]3C(=O)N(C(C)(C)C)C(=O)[C@H]3CC[C@H]12	–	inactive: -1.15% [at 11.5 µM]
CC(C)=NO[C@@H](C)c1cn([C@H](CO)Cc2ccccc2)nn1	–	inactive: 18.1% [at 11.5 µM] and inactive: 12.3% [at 11.5 µM]
O=C(NCc1ccc2c(c1)OCO2)c1ccc(-c2ccc(Cl)cc2)o1	active: 31.6 µM	–
COc1ccc(Cl)cc1C(=O)Nc1ccccc1N1CCN(C)CC1	inconclusive [inhibitor, single point]	–
Cc1ccccc1NC(=O)CSc1nnc(Cc2cccn2C)n1-c1ccc(F)cc1	inconclusive [inhibitor, partial curve, poor fit]	–
Cc1ccc2nc(NCCO)nc(-c3ccccc3)c2c1	inconclusive [inhibitor, partial curve, poor fit]	–
Nc1n[nH]c(-c2ccccc2)c1-c1ccccc1	inconclusive [inhibitor, partial curve]	–
O=C(c1cc2ccccn2n1)N1CCN(c2cccc(C(F)(F)F)c2)CC1	inconclusive [inhibitor, partial curve]	–
CC1CN(C(=O)c2cccs2)CCN1C(=O)c1cccs1 (stereo not drawn)	–	inactive: 2.78%
CCCCC(CC)CN=C(N)NC(N)=NCCCCCCN=C(N)NC(N)=NCC(CC)CCCC (stereo not drawn)	inconclusive [inhibitor, partial curve]	–
CCNc1ncc2nc(CCc3ccccc3)c(=O)n(-c3ccc(OC)cc3)c2n1	inconclusive [inhibitor, single point]	–
O=C(Nc1ccc(N2CCN(C(=O)c3ccccc3)CC2)cc1)c1ccc(Br)o1	inconclusive [inhibitor, single point]	–
COc1ccc(Nc2nc(N)nc(CN3CCc4ccccc4C3)n2)cc1	inconclusive [inhibitor, partial curve]	–
O=c1c(-c2ccc(F)cc2)nc2cncnc2n1Cc1ccc(F)cc1	inconclusive [inhibitor, full curve]	–
O=C(Nc1ccc2c(c1)nc1n2CCN(Cc2ccccc2)C1)c1cccs1	inconclusive [inhibitor, partial curve]	–
Cc1ccccc1NS(=O)(=O)c1cc(C(=O)NCc2ccco2)ccc1C	inconclusive [inhibitor, single point]	–
CCCc1[nH]nc2c1C(c1cc(OC)ccc1F)C(C#N)=C(N)O2 (stereo not drawn)	inconclusive [inhibitor, partial curve]	–
COc1ccc(C(=O)N2CCC3(CC2)CCN(c2ccccn2)CC3)cc1	inconclusive [inhibitor, single point]	–
O=C(CSc1nnnn1-c1ccc2c(c1)OCCO2)N1CCc2ccccc21	inconclusive [inhibitor, partial curve]	–
CN(C)c1ccc(NC(=O)CN2CCN(S(=O)(=O)c3cc(Cl)ccc3Cl)CC2)cc1	–	inactive: -25.4%
O=C1c2ccccc2NC(c2ccccn2)N1c1ccc(Cl)cc1 (stereo not drawn)	–	inactive: -24.8%

SMILES	Potency	activity, negative = inhibition
Cc1c(/C=N/n2cnnc2)c2ccccc2n1CCOc1ccccc1	inconclusive [inhibitor, partial curve]	–
Cc1ccc2nc(SCc3nnc(-c4cccs4)o3)[nH]c2c1	inconclusive [inhibitor, single point]	–
CC(C)n1c(-c2ccco2)csc1=Nc1cccnc1	inconclusive [inhibitor, full curve, poor fit]	–
COc1cccc(NC2c3ccccc3C(=O)N2Cc2ccco2)c1 (stereo not drawn)	inconclusive [inhibitor, partial curve]	–
CC(C)(C)OC(=O)NCCCCCc1nnc(SCC(=O)Nc2cccc(Cl)c2)o1	active: 25.1 µM	–
Cc1cc(C(=O)CN2C(=O)C3CC=CCC3C2=O)c(C)n1-c1ccccc1 (stereo not drawn)	–	inactive: -25.6%
Cc1cccnc1NC(=O)C(C)Oc1ccccc1 (stereo not drawn)	inconclusive [inhibitor, partial curve, poor fit]	–
CCOC(=O)NC1(Nc2ccc(Cl)cn2)Oc2ccccc2O1	inconclusive [inhibitor, single point]	–
COC(=O)c1ccc(C(=O)OC)nc1	inconclusive [inhibitor, single point]	–
COc1ccc(Cl)cc1C(=O)NCCc1ccc(S(=O)(=O)NC(=O)NC2CCCCC2)cc1	inactive	–
Cc1noc(C)c1CSc1nc2ccccc2c(=O)n1-c1ccc(F)cc1F	inconclusive [inhibitor, single point]	–
CCOC(=O)c1cnc(-n2nc(C)cc2C)nc1Nc1ccc(N(C)C)cc1	inconclusive [inhibitor, full curve, poor fit]	–
Cc1cc(NC(=O)c2cc(-c3ccco3)on2)nn1Cc1ccc(Cl)cc1	inconclusive [inhibitor, partial curve]	–
COc1ccc(-c2nnc(Nc3nc4c(OC)cccc4s3)o2)cc1	–	inactive: 6%
COC(=O)/C=c1/sc2nc3ccccc3n2c1=O	inconclusive [inhibitor, full curve, poor fit]	–
COc1ccc(C2CC(=O)c3cnc(NC(=O)c4ccccc4OC)nc3C2)c(OC)c1 (stereo not drawn)	active: 10 µM	–
CN(c1ccccc1)c1nc(-n2ccnc2)nc(-n2ccnc2)n1	inconclusive [inhibitor, partial curve]	–
CCC(=O)c1cc(-c2nc3ccccc3n2C)n(C)c1	inconclusive [inhibitor, single point]	–
COc1ccc(-n2c(C)cc(C(=O)CSc3nn4c(=O)c(C(C)(C)C)nnc4s3)c2C)cc1	–	inactive: -1.73%
N=c1n(CCO)c2ccccc2n1CCOc1ccc(Cl)cc1Cl	inconclusive [inhibitor, single point]	–
N#Cc1nc(-c2cccs2)oc1NCc1ccco1	inconclusive [inhibitor, partial curve]	–
Cn1nnc2cc(C(=O)Nc3cccnc3)ccc21	–	inactive: 30%
COC(=O)c1ccc(CSc2nc3c(c(=O)n2-c2ccc(F)cc2)SCC3)o1	inconclusive [inhibitor, partial curve]	–

SMILES	Potency	activity, negative = inhibition
Cc1nnc(SCC(=O)N2CCc3ccccc32)s1	–	inactive: -8.13%
COc1ccc(CCN2CC(O)=C(c3nc4ccccc4c(=O)[nH]3)C2=N)cc1OC	inconclusive [inhibitor, single point]	–
CCOc1ccc(-c2nnc(-c3ccco3)o2)cc1OCC	inconclusive [inhibitor, partial curve]	–
Cc1c(C(=O)Nc2ccc(F)cc2)oc2ccc(S(=O)(=O)N3CCC4(CC3)OCCO4)cc12	inconclusive [inhibitor, partial curve]	–
N#CCCn1c(=O)c(-c2cccs2)nc2cnc(Nc3ccccc3)nc21	–	inactive: -0.45%
COc1ccc(-c2[nH]ncc2-c2cnn(-c3ccccc3)c2)c(O)c1	inconclusive [inhibitor, partial curve, poor fit]	–
CC(C)=CCc1c2c(c3occ(-c4ccc(O)c(O)c4)c(=O)c3c1O)C=CC(C)(C)O2	inconclusive [inhibitor, partial curve]	–
CC1=CC(C)(C)N2C(=O)C3(N=C(N)NC(Nc4ccccc4)=N3)c3cc(C)cc1c32 (stereo not drawn)	inconclusive [inhibitor, partial curve, poor fit]	–
CC(C)OCCCNc1nc2c([nH]1)c(=O)n(C)c(=O)n2C	–	inconclusive: -31.4% [inhibitor]
CC(C)(C)c1ccccc1OCCCCCNCCO	–	inactive: 6.37%
COC(=O)c1ccc(CSc2nc3ccccc3c(=O)n2-c2cccc(OC)c2)o1	inconclusive [inhibitor, partial curve]	–
N=c1sc2ccccc2n1CCS (tested in a mixture with another compound)	–	inactive: 0.974% [at 11.5 µM]
CCOc1ccc2[nH]c(=O)c(CN(Cc3ccco3)C(=O)c3cccc(F)c3)cc2c1	inconclusive [inhibitor, partial curve]	–
O=C(c1ccc2ccccc2c1)N1CCN(c2ccc(O)cc2)CC1	–	inactive: 7.99%
CC(C)(C)OC(=O)N1CC=C2C(C#N)=C(N)C(C#N)(C#N)C(c3cccs3)C2C1 (stereo not drawn)	–	inactive: -22.8%
CCC1=C2CC[C@H]3C(=O)N(CC(=O)OC)C(=O)[C@H]3[C@H]2[C@@]2(C)C(=O)N(Cc3ccccc3)C(=O)N2C1=O	–	inactive: 0.992%
CCOC(=O)c1sc(/N=C/N(C)C)c(C(=O)OCC)c1C	inconclusive [inhibitor, single point]	–
CCOc1cc(C2Nc3ccccc3C(=O)N2c2ccccc2)ccc1O (stereo not drawn)	–	inactive: -14.7%
O=C(COc1ccc(Cl)cc1Cl)NCCCn1ccnc1	inconclusive [inhibitor, partial curve]	–
COc1ccccc1N1CCN(C(=O)c2ccc3nc(-c4ccco4)c(-c4ccco4)nc3c2)CC1	active: 15.8 µM	–
CCc1cc(-c2[nH]ncc2-c2ccc3c(c2)OCO3)c(O)cc1O	inconclusive [inhibitor, single point]	–
Cc1ccccc1Cn1ccc(NC(=O)c2cnn3c(C(F)(F)F)cc(-c4ccco4)nc23)n1	inconclusive [inhibitor, partial curve]	–
